Results taken from PMC6463675, “Panax ginseng Inhibits Metabolism of Diester Alkaloids by Downregulating CYP3A4 Enzyme Activity via the Pregnane X Receptor” (Evidence-based Complementary and Alternative Medicine : eCAM, 2019).

Substrate: [H][C@]12C[C@]3(O)[C@@H](OC)[C@H](O)[C@](OC(C)=O)(C4C5N(C)C[C@]6(COC)CC[C@H](OC)[C@@]51[C@]6([H])[C@H]4OC)[C@@]2([H])[C@H]3OC(=O)c1ccccc1
Test: Kinetic analysis in recombinant human CYP3A4
Type: in vitro ADME
Settings: 37.0 °C

B1: recombinant human CYP3A4 (Homo sapiens) (protein)
chain: ALIPDLAMETWLLLAVSLVLLYLYGTHSHGLFKKLGIPGPTPLPFLGNILSYHKGFCMFDMECHKKYGKVWGFYDGQQPVLAITDPDMIKTVLVKECYSVFTNRRPFGPVGFMKSAISIAEDEEWKRLRSLLSPTFTSGKLKEMVPIIAQYGDVLVRNLRREAETGKPVTLKDVFGAYSMDVITSTSFGVNIDSLNNPQDPFVENTKKLLRFDFLDPFFLSITVFPFLIPILEVLNICVFPREVTNFLRKSVKRMKESRLEDTQKHRVDFLQLMIDSQNSKETESHKALSDLELVAQSIIFIFAGYETTSSVLSFIMYELATHPDVQQKLQEEIDAVLPNKAPPTYDTVLQMEYLDMVVNETLRLFPIAMRLERVCKKDVEINGMFIPKGVVVMIPSYALHRDPKYWTEPEKFLPERFSKKNKDNIDPYIYTPFGSGPRNCIGMRFALMNMKLALIRVLQNFSFKPCKETQIPLKLSLGGLLQPEKPVVLKVESRDGTVSGA
notes: purchased Corning 456202; host or cells: baculovirus infected insect cells (BTI-TN-5B1-4)
Work on B1 yielded a Km of 17.05 ± 9.70 µM and a Vmax of 0.16 ± 0.04 nmol·mg protein^−1·min^−1.
